*1 amine or outer side, *2 acyl side, *3 side chain or, on linkers, in order; H or OH if unused. Where a SMILES comes first, the peptide text is derived from it. [ ]: non-standard residue; d: D form. The star is where a group is joined. ξ: configuration not given here. Pro(4,4-S(CH2)3S) = O=C(O)[C@@H]1CC2(CN1)SCCCS2; ξPro(4R-SBzl) = O=C(O)C1C[C@@H](SCc2ccccc2)CN1; ξPhg(2,3-(OMe)2) = COc1cccc(C(N)C(=O)O)c1OC; Acetyl(2-naphthyl) = O=C(Cc1ccc2ccccc2c1)*; Benzoyl(3-COOH) = O=C(O)c1cccc(C(=O)*)c1; Benzoyl(2-CF3) = O=C(c1ccccc1C(F)(F)F)*; Benzoyl(2-COOH) = O=C(O)c1ccccc1C(=O)*; Cyclohexanecarbonyl = O=C(C1CCCCC1)*; Isobutyloxycarbonyl = CC(C)COC(=O)*; Cyclopentylacetyl = O=C(CC1CCCC1)*; X4 = CCCCC(N[*:1])C(=O)C(=O)[*:2]; Hyp = O=C(O)[C@@H]1C[C@@H](O)CN1; X2 = CCCC(N[*:1])C(=O)C(=O)[*:2]; X105 = O=C(O)[C@H]1CCCCC1C(=O)*; Aad = N[C@@H](CCCC(=O)O)C(=O)O; X97 = CCOc1ccc2ccccc2c1C(=O)*; CH2CO2tBu = CC(C)(C)OC(=O)C*; Chg = N[C@H](C(=O)O)C1CCCCC1; Phg = N[C@H](C(=O)O)c1ccccc1; Tle = CC(C)(C)[C@H](N)C(=O)O; ξChg = NC(C(=O)O)C1CCCCC1; ξPhg = NC(C(=O)O)c1ccccc1; ξF = NC(Cc1ccccc1)C(=O)O; Boc = CC(C)(C)OC(=O)*; ξNle = CCCCC(N)C(=O)O; ξV = CC(C)C(N)C(=O)O; N(Me)OMe = CON(C)*; Bn = c1ccc(C*)cc1; ξS = NC(CO)C(=O)O; tBu = CC(C)(C)*; MEM = COCCOC*
Target: HCV NS3/NS4A protease (strain 1a) (Hepatitis C virus genotype 1a, UniProt P27958)
Experiment: biochemical
Details: Compounds prepared by Solid Phase Synthesis, Table 3; read-out: Ki* CLASS

| Compound | Ki |
| --- | --- |
| CCCCC(NC(=O)CNC(=O)C(=O)C(CCC)NC(=O)[C@@H]1C[C@@H](OCC(=O)OC(C)(C)C)CN1C(=O)C(NC(=O)Cc1ccc2ccccc2c1)C1CCCCC1)C(N)=O (stereo partly shown) ({Acetyl(2-naphthyl)}-[ξChg][Hyp](CH2CO2tBu)[X2]G[ξNle]-NH2) | > 1000 nM |
| CCCC(NC(=O)[C@@H]1C[C@@H](OCc2ccccc2)CN1C(=O)[C@H](CCCC(=O)O)NC(=O)c1cccc(C(=O)O)c1)C(=O)C(=O)NCC(=O)N[C@H](C(N)=O)c1ccccc1 (stereo partly shown) ({Benzoyl(3-COOH)}-[Aad][Hyp](Bn)[X2]G[Phg]-NH2) | > 1000 nM |
| CCCCC(NC(=O)[C@@H]1C[C@@H](OCc2ccccc2)CN1C(=O)C(NC(=O)c1ccccc1C(F)(F)F)C1CCCCC1)C(=O)C(=O)NCC(=O)NC(C(N)=O)c1ccccc1 (stereo partly shown) ({Benzoyl(2-CF3)}-[ξChg][Hyp](Bn)[X4]G[ξPhg]-NH2) | 101 to 1000 nM |
| CCCCC(NC(=O)CNC(=O)C(=O)C(CCC)NC(=O)[C@@H]1C[C@@H](OCOCCOC)CN1C(=O)C(NC(=O)C1CCCC[C@@H]1C(=O)O)C1CCCCC1)C(N)=O (stereo partly shown) (X105-[ξChg][Hyp](MEM)[X2]G[ξNle]-NH2) | 101 to 1000 nM |
| CCCCC(NC(=O)C(CCCC)NC(=O)CNC(=O)C(=O)C(CCC)NC(=O)[C@@H]1C[C@@H](OCc2ccccc2)CN1C(=O)C(NC(=O)c1c(OCC)ccc2ccccc12)C1CCCCC1)C(N)=O (stereo partly shown) (X97-[ξChg][Hyp](Bn)[X2]G[ξNle][ξNle]-NH2) | 101 to 1000 nM |
| CCCC(NC(=O)[C@@H]1CCCN1C(=O)C(NC(=O)OCC(C)C)C(C)C)C(=O)C(=O)NCC(=O)NC(COCc1ccccc1)C(N)=O (stereo partly shown) (Isobutyloxycarbonyl-[ξV]P[X2]G[ξS](Bn)-NH2) | > 1000 nM |
| CCCC(NC(=O)[C@@H]1C[C@@H](OC(C)(C)C)CN1C(=O)[C@@H](NC(=O)c1c(F)c(F)c(F)c(F)c1C(=O)O)C1CCCCC1)C(=O)C(=O)NCC(=O)NC(C(N)=O)c1cccc(C)c1 (stereo partly shown) | 101 to 1000 nM |
| CCCC(NC(=O)[C@@H]1C[C@@H](OCc2ccccc2)CN1C(=O)C(NC(=O)OCC(C)C)C(C)C)C(=O)C(=O)NCC(=O)NC(Cc1ccccc1)C(N)=O (stereo partly shown) (Isobutyloxycarbonyl-[ξV][Hyp](Bn)[X2]G[ξF]-NH2) | > 1000 nM |
| CCCC(NC(=O)[C@@H]1C[C@@H](OC(C)(C)C)CN1C(=O)[C@@H](NC(=O)c1ccccc1C(=O)O)C1CCCCC1)C(=O)C(=O)NCC(=O)NC(C(N)=O)c1cccc(OC)c1OC (stereo partly shown) ({Benzoyl(2-COOH)}-[Chg][Hyp](tBu)[X2]G[ξPhg(2,3-(OMe)2)]-NH2) | 101 to 1000 nM |
| CCCC(NC(=O)[C@@H]1C[C@@H](OC(C)(C)C)CN1C(=O)[C@@H](NC(=O)OC(C)(C)C)C1CCCCC1)C(=O)C(=O)NCC(=O)N[C@@H](COC(C)(C)C)C(N)=O (stereo partly shown) (Boc-[Chg][Hyp](tBu)[X2]GS(tBu)-NH2) | > 1000 nM |

Same assay, conditions: HCV protease continuous assay results, Table 1; read-out: Ki* Range

| Ki | Compound |
| --- | --- |
| 101 to 1000 nM | CCCC(NC(=O)C1C[C@@H](SC(C)(C)C)CN1C(=O)C(NC(=O)OCC(C)C)C1CCCCC1)C(=O)C(=O)NCC(=O)NC(C(=O)OC(C)(C)C)c1ccccc1 (stereo partly shown) [Example 155] |
| > 1000 nM | CCCC(NC(=O)[C@@H]1C[C@@H](OCCOc2ccccc2)CN1C(=O)[C@@H](O)C(C)(C)C)C(=O)C(=O)NCC(=O)N[C@H](C(=O)N(C)C)c1ccccc1 (stereo partly shown) [Example 281] |
| > 1000 nM | C=CCOC(=O)CNC(=O)C(=O)C(CCC)NC(=O)[C@@H]1CCCN1C(=O)[C@@H](NC(=O)OCC(C)C)C1CCCCC1 (stereo partly shown) [Example 51] |
| > 1000 nM | C=CCCC(NC(=O)[C@@H]1[C@@H]2[C@H](CN1C(=O)[C@@H](NC(=O)OC(C)(C)C)C(C)(C)C)C2(C)C)C(=O)C(=O)NC1CC1 (stereo partly shown) [Example 351] |
| 1 to 100 nM | CCCC(NC(=O)[C@@H]1CC(OC(=O)CCc2ccccc2)CN1C(=O)C(NC(=O)OC(C)(C)C)C(C)(C)C)C(=O)C(=O)NCC(=O)NC(C(=O)N(C)C)c1ccccc1 (stereo partly shown) [Example 336] |
| > 1000 nM | CC[C@@H](C)C(NC(=O)[C@@H]1C[C@@H](OC(C)(C)C)CN1C(=O)C(NC(=O)OCC(C)C)C(C)(C)C)C(=O)C(=O)NCC(=O)O (stereo partly shown) [Example 225] |

| Compound | Ki |
| --- | --- |
| CCCC(NC(=O)C1C[C@@H](SCc2ccccc2)CN1C(=O)C(NC(=O)OCC(C)C)C1CCCCC1)C(=O)C(=O)NCC(=O)NC(C(=O)O)c1ccccc1 (stereo partly drawn) [Example 161] (Isobutyloxycarbonyl-[ξChg][ξPro(4R-SBzl)][X2]G[ξPhg]-OH) | 1 to 100 nM |
| CCCC(NC(=O)[C@@H]1CC2(CN1C(=O)[C@@H](NC(=O)CC1CCCC1)C1CCCCC1)SCCCS2)C(=O)C(=O)NCC(=O)NC(C(=O)N(C)OC)c1ccccc1 (stereo partly shown) [Example 137] (Cyclopentylacetyl-[Chg][Pro(4,4-S(CH2)3S)][X2]G[ξPhg]-{N(Me)OMe}) | 1 to 100 nM |
| CCCCC(NC(=O)[C@@H]1CC2(CN1C(=O)[C@@H](NC(=O)OCC(C)C)C(C)(C)C)SCCCS2)C(=O)C(=O)NCC(=O)NC(C(=O)N(C)C)c1ccccc1 (stereo partly shown) [Example 184] (Isobutyloxycarbonyl-[Tle][Pro(4,4-S(CH2)3S)][X4]G[ξPhg]-NMe2) | 1 to 100 nM |

Same assay, conditions: Ki* CLASS, Compounds prepared by Solid Phase Synthesis, Table 3

| Ki | Compound |
| --- | --- |
| 101 to 1000 nM | CCCC(NC(=O)[C@@H]1C[C@@H](OCc2ccccc2)CN1C(=O)[C@H](CCCC(=O)O)NC(=O)C1CCCCC1)C(=O)C(=O)NCC(=O)N[C@H](C(N)=O)c1ccccc1 (stereo partly shown) (Cyclohexanecarbonyl-[Aad][Hyp](Bn)[X2]G[Phg]-NH2) |

Same assay, conditions: Table 4; HCV NS3/NS4A protease, spectrophotometric assay, 30° C., pH 6.5; read-out: Ki* Range

| Ki | Compound |
| --- | --- |
| 101 to 1000 nM | CCCC(NC(=O)C1C[C@@H](NS(=O)(=O)c2ccc(Cl)cc2)CN1C(=O)[C@@H](NC(=O)OCC(C)C)C1CCCCC1)C(=O)C(=O)NCC(=O)N[C@H](C(N)=O)c1ccccc1 (stereo partly shown) |
| 1 to 100 nM | CC(C)C[C@H](NC(=O)[C@@H]1C2[C@H](CN1C(=O)[C@@H](NC(=O)OC(C)C)C(C)(C)C)C2(C)C)C(=O)C(=O)NCC(=O)N[C@H](C(=O)N(C)C)c1ccccc1 (stereo partly shown) |
